From the supplement of paper PMC8728848
This is one part of the list.

Experiments:
Experiment in all cases: glycan array binding signal (z-score within array); higher = stronger binding
Details in all cases: glycan notation: IUPAC condensed, linker removed
[1] = target: Gal(b1-3)GlcNAc(b1-2)Man(a1-3)[Gal(b1-3)GlcNAc(b1-2)Man(a1-6)]Man(b1-4)GlcNAc(b1-4)GlcNAc
Summary of the method: (§1)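 Glycan array data were curated from 3228 arrays in the Consortium for Functional Glycomics database and kept only where the protein sequence was available. Glycan names were converted to IUPAC-condensed notation, and columns mapping to the same glycan were averaged. The binding signal is a within-array Z-score, averaged across arrays of the same protein sequence at different concentrations or buffers and across linkers. Negative Z-scores can be read as non-binding.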

[2] = target: Gal(b1-3)GlcNAc(b1-2)Man(a1-3)[Gal(b1-3)GlcNAc(b1-2)Man(a1-6)]Man(b1-4)GlcNAc(b1-4)[Fuc(a1-6)]GlcNAc
Summary of the method: as §1

[3] = target: Gal(b1-3)GlcNAc(b1-2)Man(a1-3)[GlcNAc(b1-4)][Gal(b1-3)GlcNAc(b1-2)Man(a1-6)]Man(b1-4)GlcNAc(b1-4)GlcNAc
Summary of the method: as §1

[4] = target: Gal(b1-3)GlcNAc(b1-2)[Gal(b1-3)GlcNAc(b1-6)]Man(a1-6)[Gal(b1-3)GlcNAc(b1-2)Man(a1-3)]Man(b1-4)GlcNAc(b1-4)GlcNAc
Summary of the method: as §1

[5] = target: Gal(b1-3)GlcNAc(b1-3)Gal(b1-3)GlcNAc
Summary of the method: as §1

[6] = target: Gal(b1-3)GlcNAc(b1-3)Gal(b1-4)Glc
Summary of the method: as §1

[7] = target: Gal(b1-3)GlcNAc(b1-3)Gal(b1-4)GlcNAc
Summary of the method: as §1

[8] = target: Gal(b1-3)GlcNAc(b1-3)Gal(b1-4)GlcNAc(b1-2)Man(a1-3)[Gal(b1-3)GlcNAc(b1-3)Gal(b1-4)GlcNAc(b1-2)Man(a1-6)]Man(b1-4)GlcNAc(b1-4)GlcNAc
Summary of the method: as §1

[9] = target: Gal(b1-3)GlcNAc(b1-3)Gal(b1-4)GlcNAc(b1-2)[Gal(b1-3)GlcNAc(b1-3)Gal(b1-4)GlcNAc(b1-6)]Man(a1-6)[Gal(b1-3)GlcNAc(b1-3)Gal(b1-4)GlcNAc(b1-2)Man(a1-3)]Man(b1-4)GlcNAc(b1-4)[Fuc(a1-6)]GlcNAc
Summary of the method: as §1

[10] = target: Gal(b1-3)GlcNAc(b1-3)Gal(b1-4)GlcNAc(b1-3)Gal(b1-4)GlcNAc(b1-2)[Gal(b1-3)GlcNAc(b1-3)Gal(b1-4)GlcNAc(b1-3)Gal(b1-4)GlcNAc(b1-6)]Man(a1-6)[Gal(b1-3)GlcNAc(b1-3)Gal(b1-4)GlcNAc(b1-3)Gal(b1-4)GlcNAc(b1-2)Man(a1-3)]Man(b1-4)GlcNAc(b1-4)[Fuc(a1-6)]GlcNAc
Summary of the method: as §1

[11] = target: Gal(b1-3)GlcNAc(b1-3)Gal(b1-4)GlcNAc(b1-6)[Gal(b1-3)GlcNAc(b1-3)]Gal(b1-4)Glc
Summary of the method: as §1

[12] = target: Gal(b1-3)GlcNAc(b1-3)Gal(b1-4)[Fuc(a1-3)]GlcNAc
Summary of the method: as §1

[13] = target: Gal(b1-3)GlcNAc(b1-3)Gal(b1-4)[Fuc(a1-3)]GlcNAc(b1-6)[Gal(b1-3)GlcNAc(b1-3)]Gal(b1-4)Glc
Summary of the method: as §1

[14] = target: Gal(b1-3)GlcNAc(b1-3)GalNAc
Summary of the method: as §1

[15] = target: Gal(b1-3)GlcNAc(b1-6)Gal(b1-4)GlcNAc
Summary of the method: as §1

[16] = target: Gal(b1-3)GlcNAc(b1-6)GalNAc
Summary of the method: as §1

[17] = target: Gal(b1-3)GlcNAc(b1-6)[Gal(b1-3)]GalNAc
Summary of the method: as §1

Gal(b1-3)GlcNAc6S = target: Gal(b1-3)GlcNAc6S
Summary of the method: as §1

[18] = target: Gal(b1-3)[Fuc(a1-4)]GlcNAc
Summary of the method: as §1

[19] = target: Gal(b1-3)[Fuc(a1-4)]GlcNAc(b1-2)Man
Summary of the method: as §1

[20] = target: Gal(b1-3)[Fuc(a1-4)]GlcNAc(b1-2)Man(a1-3)[Gal(b1-3)[Fuc(a1-4)]GlcNAc(b1-2)Man(a1-6)]Man(b1-4)GlcNAc(b1-4)[Fuc(a1-6)]GlcNAc
Summary of the method: as §1

[21] = target: Gal(b1-3)[Fuc(a1-4)]GlcNAc(b1-3)Gal(b1-3)[Fuc(a1-4)]GlcNAc
Summary of the method: as §1

[22] = target: Gal(b1-3)[Fuc(a1-4)]GlcNAc(b1-3)Gal(b1-4)[Fuc(a1-3)]GlcNAc
Summary of the method: as §1

[23] = target: Gal(b1-3)[Fuc(a1-4)]GlcNAc(b1-6)GalNAc
Summary of the method: as §1

[24] = target: Gal(b1-3)[GlcNAc(b1-6)]GalNAc
Summary of the method: as §1

[25] = target: Gal(b1-3)[Neu5Ac(a2-6)]GalNAc
Summary of the method: as §1

[26] = target: Gal(b1-3)[Neu5Ac(a2-6)]GlcNAc(b1-4)Gal(b1-4)Glc
Summary of the method: as §1

[27] = target: Gal(b1-3)[Neu5Ac(b2-6)]GalNAc
Summary of the method: as §1

Gal(b1-4)Gal = target: Gal(b1-4)Gal
Summary of the method: as §1

[28] = target: Gal(b1-4)GalNAc(a1-3)[Fuc(a1-2)]Gal(b1-4)GlcNAc
Summary of the method: as §1

B1: Di AAL2 (Agrocybe aegerita) (protein)
chain: MTSNVITQDLPIPVASRGFADIVGFGLDGVVIGRNAVNLQPFLAVKNFAQNAGGWLTTKHVRLIADTTGTGKGDIVGFGNAGVYVSVNNGKNTFADPPKMVIANFGYDAGGWRVEKHLRYLADIRKIGRADIIGFGEKGVLVSRNNGGLNFGPATLVLKDFGYDAGGWRLDRHLRFLADVTGNGHLDIVGFGDKHVFISRNNGDGTFAPAKSVIDNFCIDAGGWKIGDHPRFVADLTGDGTADIIGCGKAGCWVALNNGGGVFGQVKLVINDFGTDKGWQAAKHPRFIADLTGNGRGDVVGFGNAGVYVALNNGDGTFQSAKLVLKDFGVQQGWTVSKHRRFVVDLTGDGCADIIGFGEKETLVSYNDGKGNFGPVKALTNDFSFSGGKWAPETTVCWMANLDSSRHPAPAPMTSNVITQDLPIPVASRGFADIVGFGLDGVVIGRNAVNLQPFLAVKNFAQNAGGWLTTKHVRLIADTTGTGKGDIVGFGNAGVYVSVNNGKNTFADPPKMVIANFGYDAGGWRVEKHLRYLADIRKIGRADIIGFGEKGVLVSRNNGGLNFGPATLVLKDFGYDAGGWRLDRHLRFLADVTGNGHLDIVGFGDKHVFISRNNGDGTFAPAKSVIDNFCIDAGGWKIGDHPRFVADLTGDGTADIIGCGKAGCWVALNNGGGVFGQVKLVINDFGTDKGWQAAKHPRFIADLTGNGRGDVVGFGNAGVYVALNNGDGTFQSAKLVLKDFGVQQGWTVSKHRRFVVDLTGDGCADIIGFGEKETLVSYNDGKGNFGPVKALTNDFSFSGGKWAPETTVCWMANLDSSRH
[1]
  glycan array binding signal (z-score): -0.321
[2]
  glycan array binding signal (z-score): -0.339
[3]
  glycan array binding signal (z-score): -0.299
[4]
  glycan array binding signal (z-score): -0.331
[5]
  glycan array binding signal (z-score): -0.326
[6]
  glycan array binding signal (z-score): -0.32
[7]
  glycan array binding signal (z-score): -0.321
[8]
  glycan array binding signal (z-score): -0.258
[9]
  glycan array binding signal (z-score): -0.275
[10]
  glycan array binding signal (z-score): -0.015
[11]
  glycan array binding signal (z-score): -0.321
[12]
  glycan array binding signal (z-score): -0.321
[13]
  glycan array binding signal (z-score): -0.334
[14]
  glycan array binding signal (z-score): -0.327
[15]
  glycan array binding signal (z-score): -0.333
[16]
  glycan array binding signal (z-score): -0.324
[17]
  glycan array binding signal (z-score): -0.313
Gal(b1-3)GlcNAc6S
  glycan array binding signal (z-score): -0.322
[18]
  glycan array binding signal (z-score): -0.336
[19]
  glycan array binding signal (z-score): -0.229
[20]
  glycan array binding signal (z-score): -0.225
[21]
  glycan array binding signal (z-score): -0.31
[22]
  glycan array binding signal (z-score): -0.331
[23]
  glycan array binding signal (z-score): -0.309
[24]
  glycan array binding signal (z-score): 0.1
[25]
  glycan array binding signal (z-score): -0.293
[26]
  glycan array binding signal (z-score): -0.228
[27]
  glycan array binding signal (z-score): -0.329
Gal(b1-4)Gal
  glycan array binding signal (z-score): -0.327
[28]
  glycan array binding signal (z-score): -0.306
